Source: the supplement of paper PMC7826260
The other results are listed elsewhere or left out. Each Rep nickase domain was tested in vitro on the same pool of single strands (1 h at 37 °C, 3 µM enzyme); the outer parts of the 90-letter strands are left off. Values are log2 of uncut reads against the no-enzyme pool; uncut sequences lie near 0, cut ones below; no hit call is given. The scaling is to total reads, so uncut sequences can rise above 0 when many others are cut.

Tested on: T1, Rep nickase domain of maize striate mosaic virus
T1 sequence (residues 1-117, tag not shown): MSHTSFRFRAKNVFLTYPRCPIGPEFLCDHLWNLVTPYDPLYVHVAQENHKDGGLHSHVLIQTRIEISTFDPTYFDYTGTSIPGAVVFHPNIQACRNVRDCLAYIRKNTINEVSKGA
Assay: uncleaved DNA left, log2 of reads against the no-enzyme library (log2 ratio); higher = less cleavage (more negative = more Rep cleavage of the k-mer); sequences stand for … in CTCGTCCG…ACCGGAGA
Protocol: (§1)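 A pool of 90-nt single-stranded DNAs with seven random bases just before the constant AC of the nick site (name = the seven bases) was cut by 3 µM recombinant His6-SUMO-tagged Rep nickase domain (300 nM DNA, 50 mM HEPES pH 8.0, 50 mM NaCl, 1 mM MnCl2, 1 h, 37 °C, three replicates). Uncut DNA was amplified and sequenced.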

Row | Sequence | uncleaved DNA left (log2)
1 | TTTCCCG | -0.957
2 | AGAATGA | 0.457
3 | CTCAGAA | -0.615
4 | TGCGCCG | -0.761
5 | TCTCATA | -0.36
6 | ATCTGGC | -0.622
7 | GTCGCTA | 1.39
8 | ACAGCCA | -0.756
9 | GTGGTGT | 1.46
10 | CTTGTTC | -0.911
11 | GTATCTG | 1.04
12 | GCAGGGT | 1.4
13 | CTCCTCG | -0.809
14 | GCAGGAC | 1.77
15 | TACACGT | -0.829
16 | GTCGACA | 1.75
17 | TGATTGT | -0.957
18 | GCTAACC | 0.131
19 | AAAATTG | -1.15
20 | TAATTAG | -1.34

Row | Sequence | uncleaved DNA left (log2)
21 | TGATTAT | 0.0765
22 | CAGCTCA | -0.427
23 | TGCTCCG | -0.966
24 | TAACCAT | -0.815
25 | GCCATAC | -0.37
26 | TCCATTG | -1.27
27 | GGTAAGG | 1.57
28 | CATCATA | -0.75
29 | TCCCGAA | -0.455
30 | AATGCCT | -0.183
31 | AGCGCTT | 1.51
32 | AGAGAGT | 0.851
33 | AAAATTA | -0.784
34 | GTCATCA | 1.77
35 | GATAAAT | 1.31
36 | GACGGGT | 1.27
37 | CCGTGCC | -0.776
38 | GATTGCG | 1.92
39 | ACCGGAG | 0.0253
40 | TGTCGCA | -0.878

Tested on: T2, Rep nickase domain of porcine circovirus 2
T2 sequence (residues 2-116, tag not shown): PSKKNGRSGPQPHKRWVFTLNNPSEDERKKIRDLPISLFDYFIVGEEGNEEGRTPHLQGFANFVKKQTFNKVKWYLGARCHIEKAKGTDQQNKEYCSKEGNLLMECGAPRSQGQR
Assay: as above
Protocol: as §1

Row | Sequence | uncleaved DNA left (log2)
41 | TTTCCCG | -2.48
42 | AGAATGA | 0.259
43 | CTCAGAA | -0.0321
44 | TGCGCCG | -0.0154
45 | TCTCATA | 0.000317
46 | ATCTGGC | 0.288
47 | GTCGCTA | -0.0133
48 | ACAGCCA | 0.055
49 | GTGGTGT | 0.0494
50 | CTTGTTC | -0.203
51 | GTATCTG | 0.111
52 | GCAGGGT | 0.176
53 | CTCCTCG | 0.209
54 | GCAGGAC | 0.16
55 | TACACGT | -0.168
56 | GTCGACA | 0.0639
57 | TGATTGT | -0.254
58 | GCTAACC | -0.35
59 | AAAATTG | 0.122
60 | TAATTAG | 0.142

Row | Sequence | uncleaved DNA left (log2)
61 | TGATTAT | -1.13
62 | CAGCTCA | -0.948
63 | TGCTCCG | 0.0583
64 | TAACCAT | -0.696
65 | GCCATAC | -0.0176
66 | TCCATTG | 0.199
67 | GGTAAGG | 0.275
68 | CATCATA | -0.0554
69 | TCCCGAA | -0.0583
70 | AATGCCT | -0.307
71 | AGCGCTT | 0.0617
72 | AGAGAGT | 0.0984
73 | AAAATTA | -0.166
74 | GTCATCA | 0.165
75 | GATAAAT | -0.494
76 | GACGGGT | 0.125
77 | CCGTGCC | 0.0998
78 | GATTGCG | -0.0314
79 | ACCGGAG | -0.0625
80 | TGTCGCA | -0.122

Tested on: T3, Rep nickase domain of tomato yellow leaf curl virus
T3 sequence (residues 1-136, tag not shown): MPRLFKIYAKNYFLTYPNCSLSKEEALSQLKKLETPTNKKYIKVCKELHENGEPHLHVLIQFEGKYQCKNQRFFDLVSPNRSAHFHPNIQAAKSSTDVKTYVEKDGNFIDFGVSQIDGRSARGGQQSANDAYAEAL
Assay: as above
Protocol: as §1

Row | Sequence | uncleaved DNA left (log2)
81 | TTTCCCG | -0.0176
82 | AGAATGA | 0.047
83 | CTCAGAA | 0.0448
84 | TGCGCCG | -0.144
85 | TCTCATA | -0.0982
86 | ATCTGGC | 0.0143
87 | GTCGCTA | -0.0257
88 | ACAGCCA | -0.111
89 | GTGGTGT | 0.13
90 | CTTGTTC | -0.0759
91 | GTATCTG | 0.0484
92 | GCAGGGT | 0.0132
93 | CTCCTCG | -0.104
94 | GCAGGAC | 0.0309
95 | TACACGT | -0.171
96 | GTCGACA | -0.0447
97 | TGATTGT | -0.0442
98 | GCTAACC | -0.0993
99 | AAAATTG | -0.0566
100 | TAATTAG | 0.123

Row | Sequence | uncleaved DNA left (log2)
101 | TGATTAT | 0.076
102 | CAGCTCA | 0.0664
103 | TGCTCCG | -0.0621
104 | TAACCAT | 0.0407
105 | GCCATAC | -0.11
106 | TCCATTG | 0.159
107 | GGTAAGG | 0.155
108 | CATCATA | -0.0859
109 | TCCCGAA | -0.165
110 | AATGCCT | -0.0839
111 | AGCGCTT | -0.047
112 | AGAGAGT | -0.182
113 | AAAATTA | -0.0845
114 | GTCATCA | 0.0889
115 | GATAAAT | 0.141
116 | GACGGGT | -0.0252
117 | CCGTGCC | 0.0329
118 | GATTGCG | -0.238
119 | ACCGGAG | 0.0131
120 | TGTCGCA | 0.0566

Tested on: T4, Rep nickase domain of wheat dwarf virus
T4 sequence (residues 1-137, tag not shown): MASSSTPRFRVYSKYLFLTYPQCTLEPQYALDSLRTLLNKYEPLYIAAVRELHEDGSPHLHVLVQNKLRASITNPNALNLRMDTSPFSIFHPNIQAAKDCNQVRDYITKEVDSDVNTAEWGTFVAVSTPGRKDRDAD
Assay: as above
Protocol: as §1

Row | Sequence | uncleaved DNA left (log2)
121 | TTTCCCG | -0.202
122 | AGAATGA | 0.099
123 | CTCAGAA | 0.0375
124 | TGCGCCG | -0.122
125 | TCTCATA | 0.00233
126 | ATCTGGC | 0.0437
127 | GTCGCTA | -0.00163
128 | ACAGCCA | 0.0306
129 | GTGGTGT | 0.0922
130 | CTTGTTC | 0.00922
131 | GTATCTG | 0.0369
132 | GCAGGGT | -0.00907
133 | CTCCTCG | 0.0715
134 | GCAGGAC | 0.177
135 | TACACGT | -0.127
136 | GTCGACA | 0.0879
137 | TGATTGT | -0.0444
138 | GCTAACC | -0.108
139 | AAAATTG | -0.058
140 | TAATTAG | -0.0453

Row | Sequence | uncleaved DNA left (log2)
141 | TGATTAT | -0.0302
142 | CAGCTCA | -0.0173
143 | TGCTCCG | -0.207
144 | TAACCAT | -0.569
145 | GCCATAC | -0.123
146 | TCCATTG | 0.104
147 | GGTAAGG | 0.285
148 | CATCATA | 0.0109
149 | TCCCGAA | -0.165
150 | AATGCCT | -0.0768
151 | AGCGCTT | 0.0275
152 | AGAGAGT | 0.0527
153 | AAAATTA | 0.02
154 | GTCATCA | 0.16
155 | GATAAAT | 0.195
156 | GACGGGT | 0.258
157 | CCGTGCC | 0.0262
158 | GATTGCG | -0.0329
159 | ACCGGAG | -0.15
160 | TGTCGCA | -0.107
